Experimental data as given in the supplement of paper PMC3334620.
Over roughly 33,000 sequences, “E-score (-0.5 to 0.5)” has its median near -0.012; the highest 2% begin near 0.29. The list shows a part of the results.

target: T1, Ybr033w (UniProt P38073); assay: PBM E-score (8-mer binding enrichment) (E-score (-0.5 to 0.5)); higher = stronger / more preferred TF binding; most listed sequences are background and not binding sites; details: protein concentration: 200 nM; construct: GST-full length
T1 sequence: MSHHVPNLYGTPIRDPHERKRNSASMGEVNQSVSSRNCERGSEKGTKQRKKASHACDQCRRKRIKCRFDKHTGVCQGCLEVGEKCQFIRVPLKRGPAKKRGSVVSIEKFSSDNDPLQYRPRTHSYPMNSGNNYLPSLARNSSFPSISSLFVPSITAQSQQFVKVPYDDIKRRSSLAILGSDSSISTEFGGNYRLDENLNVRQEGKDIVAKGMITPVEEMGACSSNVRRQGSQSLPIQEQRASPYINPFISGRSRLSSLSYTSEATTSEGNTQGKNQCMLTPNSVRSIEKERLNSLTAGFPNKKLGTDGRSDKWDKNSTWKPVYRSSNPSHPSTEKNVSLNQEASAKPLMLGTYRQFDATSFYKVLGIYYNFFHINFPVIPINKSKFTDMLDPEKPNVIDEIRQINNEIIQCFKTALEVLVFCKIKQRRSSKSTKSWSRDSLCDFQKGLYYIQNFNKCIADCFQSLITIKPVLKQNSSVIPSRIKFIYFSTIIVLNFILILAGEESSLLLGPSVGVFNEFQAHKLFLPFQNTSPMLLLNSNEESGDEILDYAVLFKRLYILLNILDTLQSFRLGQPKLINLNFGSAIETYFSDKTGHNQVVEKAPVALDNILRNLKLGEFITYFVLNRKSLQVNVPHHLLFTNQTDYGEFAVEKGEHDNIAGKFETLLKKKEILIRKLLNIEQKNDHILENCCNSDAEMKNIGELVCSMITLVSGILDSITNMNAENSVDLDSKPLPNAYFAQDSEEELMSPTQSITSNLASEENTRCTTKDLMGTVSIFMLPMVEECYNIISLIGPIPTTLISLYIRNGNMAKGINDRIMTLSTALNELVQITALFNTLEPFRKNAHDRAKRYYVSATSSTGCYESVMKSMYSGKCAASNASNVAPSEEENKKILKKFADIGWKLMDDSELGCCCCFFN
In short: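 For each ungapped eight-base word taken together with its reverse complement, the Universal PBM Analysis Suite assigned an E-score. Binding data came from GST-tagged yeast transcription factors, applied at about 100-200 nM, on universal all-10-mer Agilent arrays made double-stranded by primer extension. Fluorescent anti-GST marked bound protein, and scans were normalised with masliner.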

| Sequence | PBM E-score |
| --- | --- |
| CACTCTCG | -0.0438 |
| TCGAATAA | 0.193 |
| CGCCCAAG | -0.195 |
| CTCGGTCC | -0.168 |
| CCAGACAC | -0.24 |
| CTAAACTA | 0.0179 |
| CATCGCCC | -0.235 |
| CGTGATAG | -0.045 |
| CATTACCC | -0.29 |
| CGGTTACA | 0.0159 |
| ATGAACAT | 0.217 |
| CAAACTAG | 0.107 |
| AGGTGCCC | -0.31 |
| CAGGATAG | -0.00567 |
| AGAAAGAG | -0.132 |
| ATCTTGGC | -0.0132 |
| GAACAGTC | -0.0146 |
| CCCGTTTC | -0.0848 |
| GATACGTA | -0.0255 |
| ATCTTTCC | 0.154 |
| ATGTGTGA | -0.00036 |
| AAGTAATC | 0.233 |
| ATTCTCGC | -0.0709 |
| CAAGGTCA | -0.117 |
| AGTGAAAG | 0.125 |

| Sequence | PBM E-score |
| --- | --- |
| CCATGCCA | -0.00619 |
| ACAGGGCG | -0.153 |
| CACACTCC | -0.0903 |
| TCCAGGGA | -0.0294 |
| AAGGGCGA | -0.26 |
| AGGAGCTG | -0.209 |
| ATCCCGTG | -0.0178 |
| AACATATC | 0.25 |
| GCTCGGGA | -0.109 |
| CGGGAGAC | -0.142 |
| GGCATGGA | 0.0291 |
| ATCCATTG | 0.137 |
| CTGAATGC | -0.0244 |
| AGCGCCAG | -0.147 |
| CCTGTCAA | -0.197 |
| ACTCAGGC | 0.0484 |
| GTTATGTA | -0.0248 |
| AGCACCCT | -0.199 |
| AAAAGTAT | 0.13 |
| AAGGAACC | 0.079 |
| ATTTGAGA | 0.0619 |
| ACGGCGTA | 0.0688 |
| GTGTTCTA | 0.226 |
| AGCAAGCT | -0.0641 |
| AGAAGTGC | -0.133 |

| Sequence | PBM E-score |
| --- | --- |
| AATCAACC | 0.113 |
| AACCTCGA | 0.0493 |
| CTAAGAGC | -0.245 |
| ACTCACCA | 0.0658 |
| ACGCTGAG | -0.223 |
| AAGACCCC | -0.184 |
| AAAATACC | 0.315 |
| CGAATCAC | -0.0744 |
| TAATGGAA | 0.184 |
| CTTTTCTA | 0.0222 |
| ACGATGAT | 0.155 |
| AGGTGGAT | -0.108 |
| ATCAGTTA | 0.22 |
| TAGACTGA | -0.0874 |
| CTTCTAAA | 0.144 |
| GTTCGGCA | 0.0546 |
| CGATCCAG | -0.0701 |
| CACTCCTA | 0.0521 |
| GGGTACTA | 0.0512 |
| AACGTTAG | 0.00362 |
| CGTGGCGA | -0.161 |
| ATAAAAAA | 0.164 |
| TCCGCACA | 0.0373 |
| CGGTTCAC | -0.285 |
| CTAAATTC | 0.204 |

| Sequence | PBM E-score |
| --- | --- |
| AAGCGGAT | -0.127 |
| AAGACGTA | 0.0539 |
| GACTAAGA | -0.0211 |
| ATGAGGTA | 0.0374 |
| GTGTCTGA | 0.0974 |
| GCAACATA | -0.00926 |
| AGTGGCGA | -0.142 |
| CGGAAGCC | -0.177 |
| GTGTCCTA | -0.06 |
| GCGAAGAA | -0.001 |
| ATTCCACG | -0.0625 |
| TGACACCA | -0.0123 |
| CGGCCTGC | -0.233 |
| TCGGGTAA | -0.0418 |
| GGCGGCAA | -0.159 |
| ATGGCCGA | -0.0861 |
| GCCTAAAC | -0.101 |
| GCGGAGAC | 0.0337 |
| AGCGCGTG | -0.129 |
| AGTAGTGC | -0.0503 |
| AACCGCGA | 0.123 |
| AGGGCGAC | -0.208 |
| GGGATGAC | -0.172 |
| CCAGCTGG | 0.0532 |
| TCACCGCA | -0.016 |

| Sequence | PBM E-score |
| --- | --- |
| GAACATAA | 0.192 |
| CGTCATAG | -0.082 |
| AAGCCGAC | -0.227 |
| AGGCCCAC | -0.303 |
| AACTTGGA | 0.11 |
| ACTTCCGA | -0.0181 |
| CCACCTCC | -0.184 |
| ACCGTCAA | -0.00416 |
| GAATACGC | -0.106 |
| CGTTCAGC | -0.176 |
| CCCCCGCG | -0.215 |
| CAGCAAAA | 0.144 |
| GCATTCGA | -0.195 |
| TCGTCTCA | -0.135 |
| CTCTTACC | 0.0116 |
| AAAGCTAC | 0.00605 |
| CACCAACG | -0.126 |
| CTCCTCTA | -0.165 |
| CTTGCCCA | -0.0497 |
| GACGGAAA | 0.227 |
| ACACGGGG | -0.173 |
| AGGAAACC | -0.0526 |
| AGTCAGTG | -0.098 |
| AGCAGCCT | -0.266 |
| AAATTTCG | 0.139 |

| Sequence | PBM E-score |
| --- | --- |
| GGGTAAAA | 0.168 |
| CCGTAAAA | 0.205 |
| CCGCGGAC | -0.223 |
| ATTGGCCC | -0.285 |
| CACCAGCG | -0.144 |
| AACTTAAA | 0.237 |
| ATACTACA | 0.256 |
| AATGAGAG | -0.108 |
| AACACTGT | 0.0195 |
| AACGTTTC | 0.0106 |
| CGCAGAAA | 0.0363 |
| GGTAGTGA | -0.0877 |
| GGACGACA | -0.00149 |
| CAGTAAAG | -0.00942 |
| GGTTTACA | 0.226 |
| AGCGGGGC | -0.268 |
| ACCATACG | 0.116 |
| AGCGAATG | -0.139 |
| AAGGCCTG | -0.231 |
| ATTAGCTG | 0.0588 |
| AGTAACGC | -0.0422 |
| AAACATGC | 0.0189 |
| CTCATGAG | 0.065 |
| GAACTAGC | 0.00293 |
| CCATAAGA | 0.0103 |

| Sequence | PBM E-score |
| --- | --- |
| GCTTCAGA | -0.158 |
| ATCCAAAA | 0.149 |
| ATCGAAAA | 0.238 |
| AACCTTCC | -0.158 |
| CTGAAATA | 0.188 |
| GCGTCACC | -0.265 |
| CAGAAACG | 0.0676 |
| TAATTACA | 0.248 |
| AAAGTTTA | 0.231 |
| GATGAAAC | 0.117 |
| CGGGCGCA | -0.179 |
| CAGTCGTA | -0.0311 |
| GGCCCCCC | -0.285 |
| GAAATAGA | 0.228 |
| GTCTCGCA | -0.0684 |
| GAAGTACC | 0.0554 |
| AGACCGTC | -0.227 |
| CCTCCGCG | -0.286 |
| AAAGTACC | 0.0487 |
| TATAGAAA | 0.238 |
| ATAGCCAC | -0.0322 |
| CCGATGTA | -0.0673 |
